# Data from PubChem BioAssay AID485281 (National Center for Advancing Translational Sciences (NCATS), 2010).
# Among all 350,000 compounds or so, about 260 (0.074%) were called active. Inconclusive results, whose numbers are uncertain, are shown with a selection of clear calls. Calls follow the shape of the dose curve; as a rule, active = well fitted inhibition curve with a large enough effect; inconclusive = small, poorly fitted or top-dose-only effect; inactive = no such curve, though single readings can be large or run the other way. Where the call is inconclusive, the potency comes from a doubtful curve fit.
# Target: Ferritin light chain (Equus caballus) (UniProt P02791)
# Sequence of UniProt P02791 (P02791 whole entry, looked up): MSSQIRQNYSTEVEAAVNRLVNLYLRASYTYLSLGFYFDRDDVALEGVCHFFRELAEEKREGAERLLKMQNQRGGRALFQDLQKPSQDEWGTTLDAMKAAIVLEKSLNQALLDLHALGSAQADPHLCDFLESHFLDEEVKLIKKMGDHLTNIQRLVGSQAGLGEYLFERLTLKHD
# Experiment: qHTS Assay for Identification of Novel General Anesthetics; also: nearly all actives have a fitted effect of over 20% in size
# Settings: apoferritin/1-aminoanthracene competitive binding, fluorescence; activity change, negative = displacement: at 77.5 µM (top of the series)
# Outline: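 Read-out: endpoint 1-AMA fluorescence, excitation 380 nm and emission 535 nm, after compounds sit 10 min at room temperature with 10 uM horse-spleen apoferritin in 50% saturated 1-AMA/PBS. Values come from four-parameter Hill fits.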
# % is scaled to controls: 0 for no effect and ±100 for the full control effect; potency is read from the fitted curve at half-maximal effect; tags tell the direction and shape of the fitted curve.
SMILES,Potency,"activity change, negative = displacement"
Cc1ccc(NC(=O)CSc2nc(-c3ccco3)cc(C(F)(F)F)n2)cc1,"inconclusive: 3.55 µM [inhibitor, full curve]",
O=C(c1cc(COc2c(F)cccc2F)on1)N1CCC(c2ccccc2Cl)C1 (stereo not drawn),"inconclusive: 5.01 µM [inhibitor, full curve]",
O=C(OCC(=O)N1CCc2ccccc21)c1cccnc1Cl,"inconclusive: 31.6 µM [inhibitor, partial curve]",
c1cc2c(cc1C1=NNC(=NC3CC3)SC1)OCCO2,"inconclusive: 31.6 µM [inhibitor, partial curve]",
O=C(c1ccc(COc2ccc(Cl)cc2)o1)N1CCN(Cc2ccc3c(c2)OCO3)CC1,,inactive: 0.188%
CCN(CC)c1ccc(NC(=O)CSc2nc(-c3cccs3)cc(C(F)(F)F)n2)cc1,"inconclusive: 0.891 µM [inhibitor, full curve, poor fit]",
Fc1cc(F)c(F)c(SCCc2ccncc2)c1F,"inconclusive: 25.1 µM [inhibitor, partial curve]",
O=C(NC(=S)Nc1cccc(S(=O)(=O)NC2=NCCC2)c1)c1cc(-c2ccco2)nc2ccccc12,,inactive: -10.6%
CC(C)=NOC(=O)c1ccc(-c2ccccc2)cc1,,inactive: 6.34%
CC(=O)N1CCc2c(sc3nc(SCC(C)C)n(-c4ccc(F)c(Cl)c4)c(=O)c23)C1,"inconclusive: 3.16 µM [inhibitor, full curve, poor fit]",
c1ccc(-c2n[nH]c3c2CCC3)cc1,"inconclusive: 44.7 µM [inhibitor, single point]",
CN1C(=O)C(O)(CC(=O)/C=C/C=C/c2ccccc2)c2ccccc21 (stereo not drawn),"inconclusive: 10 µM [inhibitor, partial curve]",
O=C1/C(=C/c2ccccc2[N+](=O)[O-])COc2ccccc21,"inconclusive: 28.2 µM [inhibitor, partial curve]",
CCOCCc1nn2c(=O)cc(COC(=O)C3CCCCC3)nc2s1,"inconclusive: 22.4 µM [inhibitor, partial curve]",
N#Cc1c(NC(=O)CCCN2C(=O)c3ccccc3C2=O)oc(-c2ccccc2)c1-c1ccccc1,"inconclusive: 1 µM [inhibitor, full curve]",
Cc1ccc(NC(=O)c2cc(-c3ccccc3O)n[nH]2)cc1Cl,,inactive: 12.9%
CCC1(C)N([O-])C(C)=C(c2ccccc2)[N+]1=O (stereo not drawn),"inconclusive: 14.1 µM [inhibitor, partial curve]",
O=C(Oc1c(Br)cc(C(=S)N2CCOCC2)cc1Br)c1ccc(Cl)cc1,"inconclusive: 39.8 µM [inhibitor, partial curve]",
